# According to paper doi:10.1101/2025.02.07.636106:
# Experiments:
# [1] = biological target: Eukaryotic translation initiation factor 3 subunit H (UniProt O15372); assay: cross-linking mass spectrometry
# [2] = biological target: T1, Golgi apparatus protein 1 (UniProt Q92896); assay: cross-link between two proteins; cross-linking mass spectrometry
# T1 sequence: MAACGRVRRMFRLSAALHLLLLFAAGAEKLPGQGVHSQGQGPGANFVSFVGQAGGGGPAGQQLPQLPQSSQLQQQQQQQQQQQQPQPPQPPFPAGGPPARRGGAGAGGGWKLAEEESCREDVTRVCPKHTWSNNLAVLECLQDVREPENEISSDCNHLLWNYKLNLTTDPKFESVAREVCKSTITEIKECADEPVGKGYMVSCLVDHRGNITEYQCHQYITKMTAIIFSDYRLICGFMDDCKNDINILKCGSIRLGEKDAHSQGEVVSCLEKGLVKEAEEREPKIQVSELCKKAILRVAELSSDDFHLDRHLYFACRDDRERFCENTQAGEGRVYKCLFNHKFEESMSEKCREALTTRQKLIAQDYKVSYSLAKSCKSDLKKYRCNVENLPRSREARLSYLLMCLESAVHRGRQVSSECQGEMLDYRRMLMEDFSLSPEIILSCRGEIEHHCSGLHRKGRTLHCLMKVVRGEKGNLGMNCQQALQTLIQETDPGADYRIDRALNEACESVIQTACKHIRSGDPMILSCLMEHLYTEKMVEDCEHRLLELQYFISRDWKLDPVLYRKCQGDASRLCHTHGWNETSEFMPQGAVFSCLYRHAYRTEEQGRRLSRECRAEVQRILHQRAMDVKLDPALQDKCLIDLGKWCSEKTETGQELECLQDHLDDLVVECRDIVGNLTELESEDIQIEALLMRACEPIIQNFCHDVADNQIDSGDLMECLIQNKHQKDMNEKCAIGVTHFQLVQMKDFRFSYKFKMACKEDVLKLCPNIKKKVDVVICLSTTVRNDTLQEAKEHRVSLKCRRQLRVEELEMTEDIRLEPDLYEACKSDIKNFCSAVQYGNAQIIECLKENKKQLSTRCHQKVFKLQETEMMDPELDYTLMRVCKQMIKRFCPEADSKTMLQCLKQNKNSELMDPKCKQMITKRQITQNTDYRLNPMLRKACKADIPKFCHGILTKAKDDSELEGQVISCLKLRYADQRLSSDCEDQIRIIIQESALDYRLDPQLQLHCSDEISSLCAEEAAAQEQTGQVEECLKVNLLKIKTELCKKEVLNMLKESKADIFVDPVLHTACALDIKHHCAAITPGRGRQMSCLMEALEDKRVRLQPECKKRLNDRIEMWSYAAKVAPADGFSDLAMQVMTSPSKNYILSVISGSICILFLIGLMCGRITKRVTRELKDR
# [3] = biological target: Kinesin-like protein KIF21A (UniProt Q7Z4S6); assay: as above
# UniProt Q7Z4S6, sequence (Q7Z4S6 whole entry): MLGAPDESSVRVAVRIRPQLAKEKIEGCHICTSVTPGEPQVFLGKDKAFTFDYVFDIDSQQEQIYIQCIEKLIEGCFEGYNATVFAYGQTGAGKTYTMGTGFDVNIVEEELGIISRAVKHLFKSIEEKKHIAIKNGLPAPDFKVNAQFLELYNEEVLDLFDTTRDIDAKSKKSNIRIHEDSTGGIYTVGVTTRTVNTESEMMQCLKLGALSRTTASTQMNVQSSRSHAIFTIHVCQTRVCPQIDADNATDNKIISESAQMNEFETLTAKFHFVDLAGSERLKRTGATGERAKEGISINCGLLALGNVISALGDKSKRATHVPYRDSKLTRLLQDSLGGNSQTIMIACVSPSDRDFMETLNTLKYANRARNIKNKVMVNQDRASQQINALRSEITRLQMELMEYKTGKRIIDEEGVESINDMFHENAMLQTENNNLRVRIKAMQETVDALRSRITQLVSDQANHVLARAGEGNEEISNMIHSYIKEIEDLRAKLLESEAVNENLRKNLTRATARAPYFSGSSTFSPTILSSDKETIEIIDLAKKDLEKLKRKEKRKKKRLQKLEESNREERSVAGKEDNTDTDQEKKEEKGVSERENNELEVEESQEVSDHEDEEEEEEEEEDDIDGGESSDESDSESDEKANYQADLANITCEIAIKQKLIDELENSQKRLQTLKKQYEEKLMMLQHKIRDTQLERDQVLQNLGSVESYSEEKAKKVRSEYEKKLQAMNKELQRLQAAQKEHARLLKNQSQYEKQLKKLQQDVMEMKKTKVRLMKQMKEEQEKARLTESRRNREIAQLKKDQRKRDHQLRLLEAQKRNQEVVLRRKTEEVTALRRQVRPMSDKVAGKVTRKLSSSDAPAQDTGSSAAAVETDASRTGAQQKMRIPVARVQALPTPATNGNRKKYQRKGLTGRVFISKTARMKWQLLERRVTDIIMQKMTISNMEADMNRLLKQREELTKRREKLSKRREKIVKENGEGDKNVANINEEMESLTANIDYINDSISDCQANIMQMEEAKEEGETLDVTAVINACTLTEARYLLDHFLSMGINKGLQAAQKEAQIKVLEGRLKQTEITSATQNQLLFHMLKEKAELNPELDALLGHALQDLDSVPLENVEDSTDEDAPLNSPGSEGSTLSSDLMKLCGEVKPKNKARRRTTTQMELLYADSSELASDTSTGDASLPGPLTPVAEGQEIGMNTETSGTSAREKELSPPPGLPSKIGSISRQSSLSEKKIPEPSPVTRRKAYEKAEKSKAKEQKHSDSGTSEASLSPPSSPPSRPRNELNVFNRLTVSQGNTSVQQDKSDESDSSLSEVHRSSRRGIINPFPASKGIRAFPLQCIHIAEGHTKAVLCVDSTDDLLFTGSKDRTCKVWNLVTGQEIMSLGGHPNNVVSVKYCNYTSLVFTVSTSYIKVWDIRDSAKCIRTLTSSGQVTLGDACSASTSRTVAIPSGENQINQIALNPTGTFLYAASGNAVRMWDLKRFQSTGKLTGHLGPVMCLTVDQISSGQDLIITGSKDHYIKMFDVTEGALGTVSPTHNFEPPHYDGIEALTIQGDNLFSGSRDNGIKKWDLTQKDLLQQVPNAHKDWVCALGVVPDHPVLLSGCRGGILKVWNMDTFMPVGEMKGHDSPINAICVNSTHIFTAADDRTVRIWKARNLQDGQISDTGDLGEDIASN
# [4] = biological target: T2, Leucine-rich repeat-containing protein 59 (UniProt Q96AG4); assay: as above
# T2 sequence: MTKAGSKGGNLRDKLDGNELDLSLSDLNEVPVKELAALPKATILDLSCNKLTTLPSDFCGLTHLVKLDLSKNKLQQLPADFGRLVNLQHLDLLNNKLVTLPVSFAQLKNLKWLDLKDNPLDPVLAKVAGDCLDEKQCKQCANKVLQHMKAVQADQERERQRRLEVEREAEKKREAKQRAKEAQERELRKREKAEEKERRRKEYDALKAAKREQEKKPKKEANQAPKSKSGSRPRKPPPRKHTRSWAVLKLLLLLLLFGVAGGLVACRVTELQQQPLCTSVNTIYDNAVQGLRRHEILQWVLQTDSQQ
# [5] = biological target: Proteasome subunit alpha type-3 (UniProt P25788); assay: cross-link between two proteins; co-fractionation; cross-linking mass spectrometry
# UniProt P25788, sequence (P25788 whole entry): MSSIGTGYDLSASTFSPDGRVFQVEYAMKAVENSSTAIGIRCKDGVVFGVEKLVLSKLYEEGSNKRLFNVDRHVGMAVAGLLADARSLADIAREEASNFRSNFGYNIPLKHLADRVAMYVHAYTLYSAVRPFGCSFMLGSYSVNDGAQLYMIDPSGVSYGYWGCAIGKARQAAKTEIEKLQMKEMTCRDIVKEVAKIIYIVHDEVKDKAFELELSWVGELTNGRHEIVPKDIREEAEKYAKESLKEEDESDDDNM
# [6] = biological target: T3, T-complex protein 1 subunit gamma (UniProt P49368); assay: as above
# T3 sequence: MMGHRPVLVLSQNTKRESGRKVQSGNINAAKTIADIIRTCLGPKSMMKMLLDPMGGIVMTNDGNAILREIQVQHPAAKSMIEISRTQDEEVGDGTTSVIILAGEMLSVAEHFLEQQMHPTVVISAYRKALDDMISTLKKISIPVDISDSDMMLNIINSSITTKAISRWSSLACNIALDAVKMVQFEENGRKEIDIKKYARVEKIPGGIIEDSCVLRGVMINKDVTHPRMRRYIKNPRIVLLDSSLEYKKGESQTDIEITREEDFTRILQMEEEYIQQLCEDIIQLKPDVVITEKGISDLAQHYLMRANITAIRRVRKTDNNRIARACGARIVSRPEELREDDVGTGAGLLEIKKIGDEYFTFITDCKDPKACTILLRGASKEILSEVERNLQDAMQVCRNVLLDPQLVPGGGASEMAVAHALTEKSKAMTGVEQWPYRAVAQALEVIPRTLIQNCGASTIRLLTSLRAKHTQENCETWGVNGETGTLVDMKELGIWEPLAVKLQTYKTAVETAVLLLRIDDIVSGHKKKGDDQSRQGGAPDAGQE
# Eukaryotic translation initiation factor 3 subunit A, sequence (chain, as listed by the source): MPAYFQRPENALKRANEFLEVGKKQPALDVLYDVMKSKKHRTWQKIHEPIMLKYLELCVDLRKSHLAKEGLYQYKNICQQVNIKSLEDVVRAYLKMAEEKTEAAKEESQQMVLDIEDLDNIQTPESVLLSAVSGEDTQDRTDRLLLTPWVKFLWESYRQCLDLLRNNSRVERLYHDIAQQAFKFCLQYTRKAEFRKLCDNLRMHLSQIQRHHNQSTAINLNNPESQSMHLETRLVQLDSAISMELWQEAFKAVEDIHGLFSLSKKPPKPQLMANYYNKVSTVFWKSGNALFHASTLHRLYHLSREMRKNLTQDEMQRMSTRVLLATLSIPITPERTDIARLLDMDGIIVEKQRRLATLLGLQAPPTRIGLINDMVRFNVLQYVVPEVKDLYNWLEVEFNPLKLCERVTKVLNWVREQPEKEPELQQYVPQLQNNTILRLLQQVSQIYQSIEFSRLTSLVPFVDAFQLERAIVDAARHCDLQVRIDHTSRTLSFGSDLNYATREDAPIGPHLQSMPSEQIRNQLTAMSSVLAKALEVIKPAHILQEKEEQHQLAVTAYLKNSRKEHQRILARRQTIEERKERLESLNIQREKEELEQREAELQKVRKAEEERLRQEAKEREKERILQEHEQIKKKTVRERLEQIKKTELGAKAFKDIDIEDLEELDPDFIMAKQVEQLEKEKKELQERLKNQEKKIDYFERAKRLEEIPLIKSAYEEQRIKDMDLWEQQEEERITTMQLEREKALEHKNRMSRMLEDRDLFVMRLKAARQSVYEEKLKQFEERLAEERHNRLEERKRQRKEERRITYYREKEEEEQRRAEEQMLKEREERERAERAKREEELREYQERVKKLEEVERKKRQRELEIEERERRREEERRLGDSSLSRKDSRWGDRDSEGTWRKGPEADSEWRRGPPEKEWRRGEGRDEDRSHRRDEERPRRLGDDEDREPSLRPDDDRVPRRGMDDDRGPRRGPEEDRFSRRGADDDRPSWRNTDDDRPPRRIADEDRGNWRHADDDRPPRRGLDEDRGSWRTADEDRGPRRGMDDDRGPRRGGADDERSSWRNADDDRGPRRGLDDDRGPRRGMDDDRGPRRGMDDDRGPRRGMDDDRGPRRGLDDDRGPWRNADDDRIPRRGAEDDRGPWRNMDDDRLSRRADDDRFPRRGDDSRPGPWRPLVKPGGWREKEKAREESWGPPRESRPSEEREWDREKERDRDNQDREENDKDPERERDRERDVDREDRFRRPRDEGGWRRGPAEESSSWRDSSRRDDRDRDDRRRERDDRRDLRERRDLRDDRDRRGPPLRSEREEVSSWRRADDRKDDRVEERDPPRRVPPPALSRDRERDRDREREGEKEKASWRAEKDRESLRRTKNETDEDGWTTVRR
# UniProt O15372, sequence (O15372 whole entry): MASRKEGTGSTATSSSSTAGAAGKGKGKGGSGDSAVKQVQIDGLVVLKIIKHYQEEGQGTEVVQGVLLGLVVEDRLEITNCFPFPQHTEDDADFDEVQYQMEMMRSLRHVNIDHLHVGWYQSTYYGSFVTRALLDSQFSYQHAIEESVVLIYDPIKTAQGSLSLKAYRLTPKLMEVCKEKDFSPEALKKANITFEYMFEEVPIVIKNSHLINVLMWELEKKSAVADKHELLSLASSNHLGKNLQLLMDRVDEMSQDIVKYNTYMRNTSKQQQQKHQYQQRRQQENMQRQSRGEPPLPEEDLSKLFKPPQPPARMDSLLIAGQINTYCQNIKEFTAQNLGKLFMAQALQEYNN
# ATP synthase F(1) complex subunit beta, mitochondrial, sequence (chain, as listed by the source): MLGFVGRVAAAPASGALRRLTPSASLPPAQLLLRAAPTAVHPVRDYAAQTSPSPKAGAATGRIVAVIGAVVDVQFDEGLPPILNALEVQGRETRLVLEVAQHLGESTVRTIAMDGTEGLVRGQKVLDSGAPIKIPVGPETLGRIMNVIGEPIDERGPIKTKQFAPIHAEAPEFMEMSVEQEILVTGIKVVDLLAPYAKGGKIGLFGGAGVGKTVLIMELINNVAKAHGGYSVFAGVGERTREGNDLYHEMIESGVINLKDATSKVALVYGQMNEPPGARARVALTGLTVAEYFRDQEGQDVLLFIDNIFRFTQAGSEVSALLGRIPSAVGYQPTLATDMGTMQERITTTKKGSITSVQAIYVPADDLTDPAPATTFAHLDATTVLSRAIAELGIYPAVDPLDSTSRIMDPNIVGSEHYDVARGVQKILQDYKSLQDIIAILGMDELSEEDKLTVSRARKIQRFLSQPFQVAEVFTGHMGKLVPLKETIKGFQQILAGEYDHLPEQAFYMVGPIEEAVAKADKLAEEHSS
# T-complex protein 1 subunit epsilon, sequence (chain, as listed by the source): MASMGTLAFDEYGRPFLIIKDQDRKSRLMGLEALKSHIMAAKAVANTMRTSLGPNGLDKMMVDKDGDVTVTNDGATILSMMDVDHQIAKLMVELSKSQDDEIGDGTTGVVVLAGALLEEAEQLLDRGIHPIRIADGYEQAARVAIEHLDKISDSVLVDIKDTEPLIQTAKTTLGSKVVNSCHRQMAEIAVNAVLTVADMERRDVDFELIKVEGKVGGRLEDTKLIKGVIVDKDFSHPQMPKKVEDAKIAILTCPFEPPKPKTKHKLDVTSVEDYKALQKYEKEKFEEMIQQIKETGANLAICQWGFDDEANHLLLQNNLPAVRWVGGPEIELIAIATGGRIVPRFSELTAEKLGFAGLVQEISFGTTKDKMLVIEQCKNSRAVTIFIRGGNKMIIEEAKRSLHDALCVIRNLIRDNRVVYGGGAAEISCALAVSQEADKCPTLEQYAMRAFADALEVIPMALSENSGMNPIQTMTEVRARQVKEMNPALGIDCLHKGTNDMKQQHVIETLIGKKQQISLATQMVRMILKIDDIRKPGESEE
substance,measurement,setting,value
Eukaryotic translation initiation factor 3 subunit F,listed as a hit,[1],yes
Albumin,listed as a hit,[2],yes
26S proteasome non-ATPase regulatory subunit 3,listed as a hit,[3],yes
Eukaryotic translation initiation factor 3 subunit A,listed as a hit,[4],yes
"ATP synthase F(1) complex subunit beta, mitochondrial",listed as a hit,[5],yes
T-complex protein 1 subunit epsilon,listed as a hit,[6],yes
